Source: ChEMBL document CHEMBL5308541, “MAIP: An Open-Source Tool to Enrich High-Throughput Screening Output and Identify Novel, Druglike Molecules with Antimalarial Activity” (ACS Med Chem Lett, 2023)
The whole screen tested about 150,000 compounds, of which about 540 (0.36%) showed an effect of 50% or more. The list shows a part of the results.

tested on: Plasmodium falciparum; test: Primary screen in NF54 nanoGlo assay, in single point, at 2uM, 72h; a lower Z score goes with more inhibition; format: functional, Erythrocyte; conditions: timepoint 72 hour

First: COc1ccc2c(C)cc(NCCCN3CCC[C@H](C(N)=O)C3)nc2c1
Second: CCOC(=O)COc1ccc([C@H](C)NS(=O)(=O)N2CCC(C)CC2)cc1OC
The “% Inhibition” value of the first is higher: 57% for the first, 2% for the second.

Compared with `CC1(C)CC(Nc2nccc(-c3cnn(-c4ccccc4)c3)n2)CC(C)(C)N1`, `c1ccc([C@H]2CCN(CCNCc3cccc4cc[nH]c34)C2)cc1` is lower in “% Inhibition” value: 13% for the first, -1% for the second.

First: C[C@H](NCc1cc(-c2ccccc2)on1)c1cc(F)ccc1N1CCC(O)CC1
Second: OC1CCN(c2cccc(Nc3nccc(C(F)(F)F)n3)c2)CC1
The “% Inhibition” value of the first is lower: -4% for the first, -3% for the second.

First: COCCn1nc(C)c(CNc2cc(C#N)nc3ccccc23)c1C
Second: CC(=O)Nc1ccc2nc(CNCCNc3ccncc3C)ccc2c1
The “% Inhibition” value of the first is higher: -4% for the first, -5% for the second.

Compared with `CC(C)C[C@@H](CNc1cc(-n2ccnc2)ncn1)N1CCOCC1`, `c1cnc2[nH]cc(C3CCN(c4ccc5nccn5n4)CC3)c2c1` is higher in “% Inhibition” value: -1% for the first, 9% for the second.

Going from `CC[C@H]1CCCCN1CCCNC(=O)CC1CCN(C(=O)c2cc3cc(Cl)ccc3[nH]2)CC1` to `Cc1cc(CC2CN(CCCN3CCN(c4cccc(Cl)c4)CC3)CC2O)on1` (stereo unspecified), the “% Inhibition” value falls from 1% to -6%.

Going from `N#Cc1cccc(Cl)c1N1CCCN(C2CCOCC2)CC1` to `COCCOC1CCN(Cc2cccc(OC[C@@H](O)CN(C)C3CCCCC3)c2)CC1`, the “% Inhibition” value rises from -7% to -5%.

Compared with `CC(C)CN1CCC(CNCc2ccc(C#CC(C)(C)O)s2)CC1`, `COCCN(C)c1ccc(CN[C@@H](C)CN2CCN(C)CC2)cn1` is lower in “% Inhibition” value: 0% for the first, -4% for the second.

First: Cc1cc(C)c(CN2CCN(C)CC2)cc1CNCCCn1ccnc1C
Second: c1cc2c(cc1-c1cnc3c(c1)OCCO3)CCN2
The “% Inhibition” value of the first is higher: 42% for the first, -5% for the second.

First: Cc1nc([C@H](C)NC(=O)Nc2ccccc2OC(F)(F)F)n[nH]1
Second: COC(=O)c1nc(Nc2cccc(Cl)c2)oc1N
The “% Inhibition” value of the first is higher: -1% for the first, -4% for the second.

First: CCn1nc(C(C)C)cc1C(=O)Nc1ccc(CC(=O)NC2CC2)cc1
Second: CN(CCNC(=O)[C@H](Cc1cn(Cc2ccccc2)cn1)NC(=O)OC(C)(C)C)C1CC1
The “% Inhibition” value of the first is lower: 3% for the first, 5% for the second.

`CC1CN(c2ccc(Nc3ncnc4ccccc34)cc2F)CC(C)O1` (stereo unspecified) was tested, and the “% Inhibition” value was -12%.

Compared with `COc1ccc2c(C)cc(NCCCN3CCC[C@H](C(N)=O)C3)nc2c1`, `CCOC(=O)COc1ccc([C@H](C)NS(=O)(=O)N2CCC(C)CC2)cc1OC` is higher in Z score: -8.7 for the first, -0.33 for the second.

Compared with `CC1(C)CC(Nc2nccc(-c3cnn(-c4ccccc4)c3)n2)CC(C)(C)N1`, `c1ccc([C@H]2CCN(CCNCc3cccc4cc[nH]c34)C2)cc1` is higher in Z score: -2.6 for the first, 0.27 for the second.

First: C[C@H](NCc1cc(-c2ccccc2)on1)c1cc(F)ccc1N1CCC(O)CC1
Second: OC1CCN(c2cccc(Nc3nccc(C(F)(F)F)n3)c2)CC1
The Z score of the first is higher: 0.9 for the first, 0.57 for the second.

Going from `COCCn1nc(C)c(CNc2cc(C#N)nc3ccccc23)c1C` to `CC(=O)Nc1ccc2nc(CNCCNc3ccncc3C)ccc2c1`, the Z score rises from 0.8 to 0.96.

Compared with `CC(C)C[C@@H](CNc1cc(-n2ccnc2)ncn1)N1CCOCC1`, `c1cnc2[nH]cc(C3CCN(c4ccc5nccn5n4)CC3)c2c1` is lower in Z score: 0.22 for the first, -1.51 for the second.

Compared with `CC[C@H]1CCCCN1CCCNC(=O)CC1CCN(C(=O)c2cc3cc(Cl)ccc3[nH]2)CC1`, `Cc1cc(CC2CN(CCCN3CCN(c4cccc(Cl)c4)CC3)CC2O)on1` (stereo unspecified) is higher in Z score: -0.12 for the first, 1.34 for the second.

Compared with `N#Cc1cccc(Cl)c1N1CCCN(C2CCOCC2)CC1`, `COCCOC1CCN(Cc2cccc(OC[C@@H](O)CN(C)C3CCCCC3)c2)CC1` is lower in Z score: 1.19 for the first, 0.85 for the second.

Going from `CC(C)CN1CCC(CNCc2ccc(C#CC(C)(C)O)s2)CC1` to `COCCN(C)c1ccc(CN[C@@H](C)CN2CCN(C)CC2)cn1`, the Z score rises from 0.04 to 0.64.

First: Cc1cc(C)c(CN2CCN(C)CC2)cc1CNCCCn1ccnc1C
Second: c1cc2c(cc1-c1cnc3c(c1)OCCO3)CCN2
The Z score of the first is lower: -6.34 for the first, 1.01 for the second.

First: Cc1nc([C@H](C)NC(=O)Nc2ccccc2OC(F)(F)F)n[nH]1
Second: COC(=O)c1nc(Nc2cccc(Cl)c2)oc1N
The Z score of the first is lower: 0.19 for the first, 0.7 for the second.

First: CCn1nc(C(C)C)cc1C(=O)Nc1ccc(CC(=O)NC2CC2)cc1
Second: CN(CCNC(=O)[C@H](Cc1cn(Cc2ccccc2)cn1)NC(=O)OC(C)(C)C)C1CC1
The Z score of the first is higher: -0.75 for the first, -0.8 for the second.

`CC1CN(c2ccc(Nc3ncnc4ccccc34)cc2F)CC(C)O1` (stereo unspecified) gave a Z score of 2.5.
